# PubChem BioAssay AID504832 (National Center for Advancing Translational Sciences (NCATS), 2011)
# “And” between values parts separate entries of the source, which are not always exact repeats. Equal entries are not always repeated. Hit rate of the full screen: of about 310,000 compounds, about 18,000 (5.8%) were called active. Inconclusive means that the source gave no clear call. Such entries were picked first, then a sample of the others. Calls follow the shape of the dose curve; as a rule, active = well fitted inhibition curve with a large enough effect; inconclusive = small, poorly fitted or top-dose-only effect, or another doubt; inactive = no such curve, though single readings can be large or run the other way. Where the call is inconclusive, the potency comes from a doubtful curve fit.
# Test: Primary qHTS for delayed death inhibitors of the malarial parasite plastid, 48 hour incubation
# Settings: P. falciparum luciferase growth in erythrocytes; series mostly up to 28.7 µM
# Method in brief: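 Compounds are pin-transferred into medium, infected erythrocytes (2% hematocrit, 0.1% parasitemia final) are added, and plates sit one parasite generation at 37 C in 5% CO2. Detection reagent is then added and luminescence measured.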
# Potency is read from the fitted curve at half-maximal effect; tags tell the direction and shape of the fitted curve.
row,SMILES,Potency
1,COc1ccccc1N1CCN(C(=O)c2ccc3c(c2)NC(=O)C(CSCc2ccccc2C)N3)CC1 (stereo not given),"inconclusive: 11.7 µM [inhibitor, single point]"
2,COc1ccc([C@@H]2[C@@H]3C(=O)N(C(C)(C)C)C(=O)[C@@H]3[C@]3(Cc4ccc(Cl)cc4)C(=O)N(c4cccc(Br)c4)C(=O)N23)cc1,"inconclusive: 2.33 µM [inhibitor, partial curve, poor fit]"
3,O=C(NC(=S)N1CCCC1)c1ccccc1,"inconclusive: 13.1 µM [inhibitor, partial curve]"
4,O=C(N/N=C\c1ccc2c(c1)OCO2)c1cncc(Br)c1,inactive
5,CC(C)CC(=O)N1CCC(O)(CS(=O)(=O)c2ccc(Cl)c(Cl)c2)CC1,"inconclusive: 8.28 µM [inhibitor, partial curve, poor fit]"
6,CCc1ccc(NC(=O)C2CCN(S(=O)(=O)c3ccc4c(c3)N(C(C)=O)CCO4)CC2)cc1,"inconclusive: 18.5 µM [inhibitor, partial curve, poor fit]"
7,O/N=C(\COc1ccccc1O)c1ccccc1,"inconclusive: 4.15 µM [inhibitor, single point]"
8,Cc1nc2c(C)cccc2c2c1CCN2c1ccccc1F,"inconclusive: 11.7 µM [inhibitor, single point]"
9,O=C(N/N=C/c1ccccc1)c1ccc(NC(=O)c2ccc(F)cc2)cc1,"inconclusive: 9.28 µM [inhibitor, partial curve, poor fit]"
10,Cc1sc2ncnc(OCC(=O)N3CCN(S(=O)(=O)c4ccc(Cl)cc4)CC3)c2c1C,"inconclusive: 14.7 µM [inhibitor, partial curve]"
11,NC(=O)c1sc2nc(N3CCCCC3)c3c(c2c1N)CCCC3,"inconclusive: 10.4 µM [inhibitor, single point]"
12,CCOC(=O)[C@H]1[C@H]2COc3ccccc3[C@@H]2N2C(=O)c3cc(Cl)ccc3NC(=O)[C@@]12C,active: 10.4 µM
13,CCCCC(=O)Nc1ccc2c(c1)nc(CN1CCN(C(=O)OCC)CC1)n2C,"inconclusive: 20.8 µM [inhibitor, partial curve, poor fit]"
14,O=C(NCc1ccco1)c1ccc(COCC(F)(F)F)cc1,"inconclusive: 10.4 µM [inhibitor, single point]"
15,CCCNC(=O)NC(=O)c1cnccc1C(F)(F)F,inactive
16,CCOc1ccc(NS(=O)(=O)c2ccc(NC(=O)C3CCCO3)cc2)cc1 (stereo not given),inactive
17,COC(=O)c1cc(NC(=O)C2(S(=O)(=O)c3ccc(Cl)cc3)CC2)cc(C(=O)OC)c1,"inconclusive: 18.5 µM [inhibitor, single point]"
18,CCCCc1ccc(NC(=O)Nc2cccnc2)cc1,"inconclusive: 1.31 µM [inhibitor, partial curve, poor fit]"
19,CCOC(=O)C1=C(C)N=c2s/c(=C\c3ccc(OCC(=O)O)cc3)c(=O)n2C1c1ccccc1OC (stereo not given),active: 1.04 µM
20,COc1cc2c(cc1OC)C(c1cccs1)N(C(=O)c1ccncc1)CC2 (stereo not given),"inconclusive: 0.415 µM [inhibitor, partial curve, poor fit]"
21,NC1=NC[C@H](Cc2ccc(O)cc2)N1CCc1cccc2ccccc12,active: 3.29 µM
22,O=C(COC(=O)c1ccccc1Cc1ccccc1)Nc1ccc(SC(F)F)cc1,"inconclusive: 16.5 µM [inhibitor, single point]"
23,Cc1cc(C)cc(NC(=O)CSc2nnnn2-c2cccnc2)c1,inactive
24,N#C/C(=C\c1ccccc1)c1nc2ncccc2[nH]1,"inconclusive: 18.5 µM [inhibitor, single point]"

row,SMILES,Potency
1,COc1ccc(-c2cc(=O)oc3cc(OC(C)C(=O)NC4CC4)ccc23)cc1 (stereo not given),"inconclusive: 18.5 µM [inhibitor, single point]"
2,CCOCCCNC(=O)c1c[nH]c2c(CC)cccc2c1=O,inactive
3,CCC(C)(C)NC(=O)c1sccc1Oc1ccc(F)cc1[N+](=O)[O-],inactive
4,COc1cccc(/C=C/C(=O)OCC(=O)c2ccc(S(=O)(=O)N3CCCCC3)cc2)c1OC,"inconclusive: 9.28 µM [inhibitor, partial curve, poor fit]"
5,CN(C)C(=O)Oc1cccc([N+](C)(C)C)c1,"inconclusive: 9.53 µM [inhibitor, partial curve] and inconclusive: 2.08 µM [inhibitor, partial curve, poor fit]"
6,COc1ccc(COCC(O)CN2CCC(CN3C(=O)c4cccc5cccc(c45)C3=O)CC2)cc1OC (stereo not given),"inconclusive: 10.4 µM [inhibitor, single point]"
7,Cc1ccc(S(=O)(=O)N(C)C)cc1NC(=O)C1CCCN(C(=O)c2ccc(Cl)cc2)C1 (stereo not given),active: 7.38 µM
8,COC(OC)C1Nc2ccccc2C(=O)N1c1ccc(F)cc1 (stereo not given),"inconclusive: 20.8 µM [inhibitor, single point]"
9,Cc1cccc(N2CCN(C(=O)c3ccc4nc(N5CCCCC5)sc4c3)CC2)c1C,"inconclusive: 14.7 µM [inhibitor, partial curve, poor fit]"
10,CCOc1ccc(C(=O)Nc2cccc(-c3nc4cccnc4o3)c2)cc1Cl,"inconclusive: 8.28 µM [inhibitor, partial curve, poor fit]"
11,C/C(CC(=O)Nc1cccc(Cl)c1Cl)=N\NC(=O)c1ccccc1C,"inconclusive: 18.5 µM [inhibitor, single point]"
12,CC(C)n1nnnc1SCC(=O)Nc1ccc2c(c1)OCCO2,inactive
13,O=C(Oc1cccc2cccnc12)c1ccccc1,"inconclusive: 15.1 µM [inhibitor, partial curve, poor fit]"
14,CCc1nnc(NC(=O)CCC(=O)N2CCN(CCOc3ccc(C)cc3)CC2)s1,"inconclusive: 11.7 µM [inhibitor, single point]"
15,CC(C)(C)n1ncc2c(=O)n(CC(=O)c3ccc(Cl)cc3)cnc21,inactive
16,Cc1cc(C)c(NC(=O)c2sc3nc(C)[nH]c(=O)c3c2C)c(C)c1,inactive
17,NC(=O)NNc1cccc(Cl)n1,inactive
18,CCc1ccccc1NC(=O)CN1CCN(C(=O)CNC(=O)c2ccc(-c3ccccc3)cc2)CC1,"inconclusive: 5.86 µM [inhibitor, partial curve]"
19,O=[N+]([O-])c1c(C(Cl)Cl)nn(-c2ccc(Cl)cc2)c1N1CCCCC1,"inconclusive: 5.22 µM [inhibitor, partial curve, poor fit]"
20,COCCCn1c(SCC(=O)Nc2ccc(C(C)=O)cc2)nc2ccccc2c1=O,"inconclusive: 18.5 µM [inhibitor, single point]"
21,CC(Sc1nnc(-c2ccco2)n1C)C(=O)N1C(C)CCCC1C (stereo not given),"inconclusive: 0.329 µM [inhibitor, full curve, poor fit]"
22,O=C(N/N=C\c1cc(Br)ccc1O)c1ccc(S(=O)(=O)N2CCCCC2)cc1,active: 5.22 µM
23,CCOc1ccc(OCCCC(=O)ON=C(N)c2ccccc2Cl)cc1,"inconclusive: 10.4 µM [inhibitor, single point]"
24,Cc1nc(CS(=O)(=O)c2ccccn2)sc1C(=O)NNC(=O)c1ccc(Cl)cc1,inactive

row,SMILES,Potency
1,O=C(NC1CCCCC1)C1CCN(C(=O)NCc2ccccc2)CC1,inactive
2,CN1CCC(OC(c2ccccc2)c2ccccc2)CC1,inactive
3,COc1ccc(NC(=O)CCCc2ccccc2)cc1OC,inactive
4,CCC(C)c1ccc(S(=O)(=O)N2CCN(C(C)CC(=O)O)CC2)cc1 (stereo not given),inactive
5,COc1ccc(CCNC(=O)Cn2c(=O)n(Cc3ccco3)c(=O)c3ccc(Cl)cc32)cc1OC,"inconclusive: 9.28 µM [inhibitor, partial curve, poor fit]"
6,CCc1ccc(OCC(=O)Nc2ccc(S(=O)(=O)N3CCOCC3)cc2)cc1,"inconclusive: 11.7 µM [inhibitor, single point]"
7,CCc1ccc(CN2CCC(n3nccc3NC(=O)c3ccccc3C)CC2)cc1,"inconclusive: 11.7 µM [inhibitor, single point]"
8,CCCCSc1nnc(-c2ccc(OC)cc2)n1C,inactive
9,CCc1ccc(C(CNc2nc(C(F)(F)F)nc3ccccc23)N(C)C)cc1 (stereo not given),active: 11.7 µM
10,CCn1c(COc2ccc(Cl)cc2)nnc1SCc1nc2ccccc2[nH]1,"inconclusive: 11.7 µM [inhibitor, single point]"
11,Brc1ccc2nc(-c3c[nH]c4ccccc34)cn2c1,inactive
12,CCCSc1nnc(NC(=O)c2sc3nc(-c4cccs4)ccc3c2N)s1,"inconclusive: 11.7 µM [inhibitor, partial curve, poor fit]"
13,O=C(Cn1cc([N+](=O)[O-])cn1)NCc1cc2ccccc2[nH]1,inactive
14,Cc1nn(Cc2ccc(Cl)c(Cl)c2)c(C)c1NC(=O)c1noc2c1CCCCC2,inactive
15,COc1ccc(CCC(=O)Nc2ccc(-c3noc(-c4ccc(OC)c(OC)c4)n3)cc2)cc1,"inconclusive: 13.1 µM [inhibitor, single point]"
16,O=C(NC1=NCCS1)c1ccc(Cl)c(S(=O)(=O)N2CCOCC2)c1,"inconclusive: 13.1 µM [inhibitor, single point]"
17,CCOC(=O)c1ccc(N2C(=O)C=CC2=O)cc1,inactive
18,Nc1nc(Cl)cc(N2CCOCC2)n1,inactive
19,COc1ccccc1NS(=O)(=O)c1ccc(C(=O)N2CC(C)OC(C)C2)cc1 (stereo not given),"inconclusive: 14.7 µM [inhibitor, single point]"
20,Cc1c(NC2=NC3(CCCCC3)Cc3ccccc32)c(=O)n(C)n1-c1ccccc1,inactive
21,C=CCNC(=S)Nc1ccc2nsnc2c1,inactive
22,C=CCN1c2ccccc2[C@]23C[C@@H](C(=O)OC)N(C(=O)NCCC)C2=NC(C(=O)OC)=C(C(=O)OC)[C@H]13,active: 3.29 µM
